# This is one part of the list.
# Legend:
# Assay in all cases: glycan array binding signal (z-score within array); higher = stronger binding
# Settings in all cases: glycan notation: IUPAC condensed, linker removed
# Fuc(a1-2)Gal = molecular target: Fuc(a1-2)Gal
# Procedure, shortened: (§1)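 Columns mapping to the same glycan were averaged after glycan names were converted to IUPAC-condensed notation. The data come from 3228 arrays in the Consortium for Functional Glycomics database, limited to those with an available protein sequence. Binding is reported as a within-array Z-score averaged across arrays of one protein sequence and across linkers.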
# Fuc(a1-2)Gal(b1-3)GalNAc = molecular target: Fuc(a1-2)Gal(b1-3)GalNAc
# Procedure, shortened: as §1
# [1] = molecular target: Fuc(a1-2)Gal(b1-3)GalNAc(b1-3)Gal
# Procedure, shortened: as §1
# [2] = molecular target: Fuc(a1-2)Gal(b1-3)GalNAc(b1-3)Gal(a1-4)Gal(b1-4)Glc
# Procedure, shortened: as §1
# [3] = molecular target: Fuc(a1-2)Gal(b1-3)GalNAc(b1-4)[Neu5Ac(a2-3)]Gal(b1-4)Glc
# Procedure, shortened: as §1
# Fuc(a1-2)Gal(b1-3)GlcNAc = molecular target: Fuc(a1-2)Gal(b1-3)GlcNAc
# Procedure, shortened: as §1
# [4] = molecular target: Fuc(a1-2)Gal(b1-3)GlcNAc(b1-2)Man(a1-3)[Fuc(a1-2)Gal(b1-3)GlcNAc(b1-2)Man(a1-6)]Man(b1-4)GlcNAc(b1-4)GlcNAc
# Procedure, shortened: as §1
# [5] = molecular target: Fuc(a1-2)Gal(b1-3)GlcNAc(b1-3)Gal(b1-4)Glc
# Procedure, shortened: as §1
# [6] = molecular target: Fuc(a1-2)Gal(b1-3)GlcNAc(b1-3)[Gal(b1-4)[Fuc(a1-3)]GlcNAc(b1-6)]Gal(b1-4)Glc
# Procedure, shortened: as §1
# [7] = molecular target: Fuc(a1-2)Gal(b1-3)[Fuc(a1-4)]GlcNAc
# Procedure, shortened: as §1
# [8] = molecular target: Fuc(a1-2)Gal(b1-3)[Fuc(a1-4)]GlcNAc(b1-2)Man(a1-3)[Fuc(a1-2)Gal(b1-3)[Fuc(a1-4)]GlcNAc(b1-2)Man(a1-6)]Man(b1-4)GlcNAc(b1-4)GlcNAc
# Procedure, shortened: as §1
# Fuc(a1-2)Gal(b1-4)Glc = molecular target: Fuc(a1-2)Gal(b1-4)Glc
# Procedure, shortened: as §1
# Fuc(a1-2)Gal(b1-4)Glc6S = molecular target: Fuc(a1-2)Gal(b1-4)Glc6S
# Procedure, shortened: as §1
# Fuc(a1-2)Gal(b1-4)GlcNAc = molecular target: Fuc(a1-2)Gal(b1-4)GlcNAc
# Procedure, shortened: as §1
# [9] = molecular target: Fuc(a1-2)Gal(b1-4)GlcNAc(b1-2)Man(a1-3)[Fuc(a1-2)Gal(b1-4)GlcNAc(b1-2)Man(a1-6)]Man(b1-4)GlcNAc(b1-4)GlcNAc
# Procedure, shortened: as §1
# [10] = molecular target: Fuc(a1-2)Gal(b1-4)GlcNAc(b1-3)Gal(b1-4)GlcNAc
# Procedure, shortened: as §1
# [11] = molecular target: Fuc(a1-2)Gal(b1-4)GlcNAc(b1-3)Gal(b1-4)GlcNAc(b1-3)Gal(b1-4)GlcNAc
# Procedure, shortened: as §1
# [12] = molecular target: Fuc(a1-2)Gal(b1-4)GlcNAc6S
# Procedure, shortened: as §1
# [13] = molecular target: Fuc(a1-2)Gal(b1-4)[Fuc(a1-3)]GlcNAc
# Procedure, shortened: as §1
# [14] = molecular target: Fuc(a1-2)Gal(b1-4)[Fuc(a1-3)]GlcNAc(b1-2)Man(a1-3)[Fuc(a1-2)Gal(b1-4)[Fuc(a1-3)]GlcNAc(b1-2)Man(a1-6)]Man(b1-4)GlcNAc(b1-4)GlcNAc
# Procedure, shortened: as §1
# [15] = molecular target: Fuc(a1-2)Gal(b1-4)[Fuc(a1-3)]GlcNAc(b1-3)Gal(b1-4)[Fuc(a1-3)]GlcNAc
# Procedure, shortened: as §1
# [16] = molecular target: Fuc(a1-2)Gal(b1-4)[Fuc(a1-3)]GlcNAc(b1-3)Gal(b1-4)[Fuc(a1-3)]GlcNAc(b1-3)Gal(b1-4)[Fuc(a1-3)]GlcNAc
# Procedure, shortened: as §1
# Fuc(a1-2)Gal6S(b1-4)Glc = molecular target: Fuc(a1-2)Gal6S(b1-4)Glc
# Procedure, shortened: as §1
# [17] = molecular target: Fuc(a1-2)Gal6S(b1-4)Glc6S
# Procedure, shortened: as §1
# [18] = molecular target: Fuc(a1-2)Gal6S(b1-4)GlcNAc
# Procedure, shortened: as §1
# Fuc(a1-2)[Gal(a1-3)]Gal = molecular target: Fuc(a1-2)[Gal(a1-3)]Gal
# Procedure, shortened: as §1
# [19] = molecular target: Fuc(a1-2)[Gal(a1-3)]Gal(b1-3)GlcNAc
# Procedure, shortened: as §1
# [20] = molecular target: Fuc(a1-2)[Gal(a1-3)]Gal(b1-3)GlcNAc(b1-2)Man(a1-3)[Fuc(a1-2)[Gal(a1-3)]Gal(b1-3)GlcNAc(b1-2)Man(a1-6)]Man(b1-4)GlcNAc(b1-4)GlcNAc
# Procedure, shortened: as §1
# [21] = molecular target: Fuc(a1-2)[Gal(a1-3)]Gal(b1-4)Glc
# Procedure, shortened: as §1
# [22] = molecular target: Fuc(a1-2)[Gal(a1-3)]Gal(b1-4)GlcNAc
# Procedure, shortened: as §1
# [23] = molecular target: Fuc(a1-2)[Gal(a1-3)]Gal(b1-4)GlcNAc(b1-2)Man(a1-3)[Fuc(a1-2)[Gal(a1-3)]Gal(b1-4)GlcNAc(b1-2)Man(a1-6)]Man(b1-4)GlcNAc(b1-4)GlcNAc
# Procedure, shortened: as §1
# [24] = molecular target: Fuc(a1-2)[Gal(a1-3)]Gal(b1-4)[Fuc(a1-3)]GlcNAc
# Procedure, shortened: as §1
# [25] = molecular target: Fuc(a1-2)[Gal(a1-4)]Gal(b1-4)GlcNAc
# Procedure, shortened: as §1
# [26] = molecular target: Fuc(a1-2)[GalNAc(a1-3)]Gal
# Procedure, shortened: as §1
# [27] = molecular target: Fuc(a1-2)[GalNAc(a1-3)]Gal(b1-3)GlcNAc
# Procedure, shortened: as §1
# [28] = molecular target: Fuc(a1-2)[GalNAc(a1-3)]Gal(b1-3)GlcNAc(b1-2)Man(a1-3)[Fuc(a1-2)[GalNAc(a1-3)]Gal(b1-3)GlcNAc(b1-2)Man(a1-6)]Man(b1-4)GlcNAc(b1-4)GlcNAc
# Procedure, shortened: as §1
# [29] = molecular target: Fuc(a1-2)[GalNAc(a1-3)]Gal(b1-4)Glc
# Procedure, shortened: as §1
# [30] = molecular target: Fuc(a1-2)[GalNAc(a1-3)]Gal(b1-4)GlcNAc
# Procedure, shortened: as §1
# [31] = molecular target: Fuc(a1-2)[GalNAc(a1-3)]Gal(b1-4)GlcNAc(b1-2)Man(a1-3)[GalNAc(a1-3)[Fuc(a1-2)]Gal(b1-4)GlcNAc(b1-2)Man(a1-6)]Man(b1-4)GlcNAc(b1-4)GlcNAc
# Procedure, shortened: as §1
# [32] = molecular target: Fuc(a1-2)[GalNAc(a1-3)]Gal(b1-4)GlcNAc(b1-3)Gal(b1-4)GlcNAc
# Procedure, shortened: as §1
# [33] = molecular target: Fuc(a1-2)[GalNAc(a1-3)]Gal(b1-4)GlcNAc(b1-3)Gal(b1-4)GlcNAc(b1-3)Gal(b1-4)GlcNAc
# Procedure, shortened: as §1
# [34] = molecular target: Fuc(a1-2)[GalNAc(a1-3)]Gal(b1-4)[Fuc(a1-3)]GlcNAc
# Procedure, shortened: as §1
# [35] = molecular target: Fuc(a1-2)[GalNAc(a1-4)]Gal(b1-4)GlcNAc
# Procedure, shortened: as §1
# [36] = molecular target: Fuc(a1-2)[GalNAc(b1-3)]Gal
# Procedure, shortened: as §1
# Fuc(a1-3)GlcNAc = molecular target: Fuc(a1-3)GlcNAc
# Procedure, shortened: as §1
binder,measurement,setting,value
"Flo5 (Saccharomyces cerevisiae), P38894 (protein) MGSSHHHHHHSSGLVPRGSHMSGATEACLPAGQRKSGMNINFYQYSLKDSSTYSNAAYMAYGYASKTKLGSVGGQTDISIDYNIPCVSSSGTFPCPQEDSYGNWGCKGMGACSNSQGIAYWSTDLFGFYTTPTNVTLEMTGYFLPPQTGSYTFSFATVDDSAILSVGGSIAFECCAQEQPPITSTNFTINGIKPWDGSLPDNITGTVYMYAGYYYPLKVVYSNAVSWGTLPISVELPDGTTVSDNFEGYVYSFDDDLSQSNCTIPDPSIH",glycan array binding signal (z-score),Fuc(a1-2)Gal,-0.201
same,glycan array binding signal (z-score),Fuc(a1-2)Gal(b1-3)GalNAc,-0.065
same,glycan array binding signal (z-score),[1],1.59
same,glycan array binding signal (z-score),[2],-0.27
same,glycan array binding signal (z-score),[3],-0.16
same,glycan array binding signal (z-score),Fuc(a1-2)Gal(b1-3)GlcNAc,-0.206
same,glycan array binding signal (z-score),[4],-0.07
same,glycan array binding signal (z-score),[5],0.011
same,glycan array binding signal (z-score),[6],-0.153
same,glycan array binding signal (z-score),[7],-0.173
same,glycan array binding signal (z-score),[8],0.231
same,glycan array binding signal (z-score),Fuc(a1-2)Gal(b1-4)Glc,1.59
same,glycan array binding signal (z-score),Fuc(a1-2)Gal(b1-4)Glc6S,0.004
same,glycan array binding signal (z-score),Fuc(a1-2)Gal(b1-4)GlcNAc,-0.044
same,glycan array binding signal (z-score),[9],-0.157
same,glycan array binding signal (z-score),[10],-0.163
same,glycan array binding signal (z-score),[11],-0.14
same,glycan array binding signal (z-score),[12],-0.193
same,glycan array binding signal (z-score),[13],-0.131
same,glycan array binding signal (z-score),[14],-0.084
same,glycan array binding signal (z-score),[15],-0.205
same,glycan array binding signal (z-score),[16],-0.118
same,glycan array binding signal (z-score),Fuc(a1-2)Gal6S(b1-4)Glc,-0.179
same,glycan array binding signal (z-score),[17],-0.048
same,glycan array binding signal (z-score),[18],-0.11
same,glycan array binding signal (z-score),Fuc(a1-2)[Gal(a1-3)]Gal,0.609
same,glycan array binding signal (z-score),[19],-0.162
same,glycan array binding signal (z-score),[20],0.739
same,glycan array binding signal (z-score),[21],-0.07
same,glycan array binding signal (z-score),[22],-0.112
same,glycan array binding signal (z-score),[23],-0.193
same,glycan array binding signal (z-score),[24],0.081
same,glycan array binding signal (z-score),[25],-0.23
same,glycan array binding signal (z-score),[26],-0.121
same,glycan array binding signal (z-score),[27],-0.082
same,glycan array binding signal (z-score),[28],0.586
same,glycan array binding signal (z-score),[29],-0.116
same,glycan array binding signal (z-score),[30],-0.156
same,glycan array binding signal (z-score),[31],-0.102
same,glycan array binding signal (z-score),[32],-0.148
same,glycan array binding signal (z-score),[33],-0.082
same,glycan array binding signal (z-score),[34],0.079
same,glycan array binding signal (z-score),[35],3.78
same,glycan array binding signal (z-score),[36],-0.197
same,glycan array binding signal (z-score),Fuc(a1-3)GlcNAc,-0.14

# — the supplement of paper PMC8728848
